Binding signal (log2 normalized intensity) data for 73 sequences are collected here from article PMC10726135.

The list shows a part of the results. At the low end of the ranking the order means little. Measured with an extract: partners may take part in the binding.

This test concerns the target T1, HNF4alpha8 (COS-7 nuclear extract) (UniProt P41235-5).
T1 sequence: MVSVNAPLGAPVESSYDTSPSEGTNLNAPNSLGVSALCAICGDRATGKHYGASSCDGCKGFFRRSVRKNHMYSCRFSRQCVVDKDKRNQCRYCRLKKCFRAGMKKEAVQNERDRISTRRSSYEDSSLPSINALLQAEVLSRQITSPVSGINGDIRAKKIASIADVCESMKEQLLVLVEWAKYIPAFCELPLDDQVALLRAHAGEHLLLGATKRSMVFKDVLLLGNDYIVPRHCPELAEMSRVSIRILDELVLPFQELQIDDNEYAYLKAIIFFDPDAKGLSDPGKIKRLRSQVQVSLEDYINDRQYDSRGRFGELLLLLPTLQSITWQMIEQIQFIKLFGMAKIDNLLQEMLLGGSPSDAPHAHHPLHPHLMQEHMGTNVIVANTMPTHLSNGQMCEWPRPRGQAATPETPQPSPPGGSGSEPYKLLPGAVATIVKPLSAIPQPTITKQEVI
In words: protein-binding microarray. The following applies: COS-7 nuclear extract on double-stranded Agilent 4x180k PBM; binding buffer, salt, pH and temperature not given; high values mean tight binding; double strand, one strand shown; sequences stand for … in …GCCTAGGGAGATTAGAGTATCGGTCGA
On to CCTGAAAACTGGAGGCCGCGACAAGCGTCG, for which the binding signal (log2 normalized intensity) was -1.32. As to CCTCAGTCCATCCTGTCTCACCAGACCAAG, the binding signal (log2 normalized intensity) was -1.31. Next, ACTTTGGAACTCAGTTAATGTACAGAGTAT: 0.96. Then CTGCACCATTCTTGTCCTTTCGGTGTGTGC, with 2.12; and CCTGTAGCTTCCGAAAGTATTTTTCTAGTC, with 0.47. Next, ATCTCACTCTTTGTTATTTATTGGCCAGTA: 2.01; GTGTGAATCTCCAACAAGGCAGGAGATTCC: -1.13. In the case of GCAGGAAGGAGCCTGCTTTGCTGAGGAACT, the binding signal (log2 normalized intensity) is -1.32. Next, ACTAGGCAGCTTGGGAGCAATTTAGCAGCA: -1.26.

Turning to CTCCCTAGAAGAGTGAACCTAGTGGCTGTG, the binding signal (log2 normalized intensity) is -1.23.

Regarding GGGGATTGTGTAACATCTAAGATTGGCCCT, the binding signal (log2 normalized intensity) is 1.84.

Regarding GAGACACAAGGAAAAATGACCATCTCGTCA, the binding signal (log2 normalized intensity) was -1.42.

GTTACATCATAGTGTTTGCCTTATTTGAAC: the binding signal (log2 normalized intensity) is 2.18. Consider AGAGTGAGCAGCACTTTTGGAGTTTGACCT, for which the binding signal (log2 normalized intensity) amounted to 8.51. Next, GATCTTTGGGCCATATTGACTAAACATTCT: 0.59. For TAGATATCGCTCCAAGAGCCAACAGGAATT, the binding signal (log2 normalized intensity) was -1.28.

Consider GGTGGAGAAAGGCAGAAGGTTCCAGGGAAC, for which the binding signal (log2 normalized intensity) was -1.45.

Turning to TCCAGCATTCTTTTCCCCATACCAGGCAGT, the binding signal (log2 normalized intensity) was 2.54. Next, GTGTATGGGTATAGGCGCGCGTGTGTGTGT: 2.15. For AGTGACATGCTTGCTTTTCAAACAGTGTGC, the binding signal (log2 normalized intensity) was 0.723.

As for TTACTGACTCCACAGTGGGGCAGATCACAA, the binding signal (log2 normalized intensity) is -1.3. TTGGCTCTTATGTCCCTCCTGACCTTTGGA: the binding signal (log2 normalized intensity) turned out to be 9.16. Next, AAAAGGCAGTCCTTAGATCCACGGAGAATG: -1.18. Next, TGTCAGGGAAGGCTAGCATTCCTGCACACC: -1.34. With AATCTGTGACTGAGCAGAGATTTGACCTAA, the binding signal (log2 normalized intensity) amounted to 3.24.

Turning to GGACAAACTGAGGAGGACATACTCCTACCA, the binding signal (log2 normalized intensity) was -1.35. Next, TGGTAGTTGCTGAAGGGCAGGGTTGGCTGT: 0.177; ACTCATTTCACATTGGTGCCCTTTGCCTTT: 4.99. Next, TGGTTAGGTATTTTAAGTCACCAGATGAGA: 0.826.

In the case of ACACAAACTCTGGAGTTTGCCCTTCACAAA, the binding signal (log2 normalized intensity) is 4.33.

For the sequence AGAAGAAAGGGGCTAGGGCAAAGATCAAAC, the binding signal (log2 normalized intensity) is 3.37.

In the case of AAGGACAAAGGTCATGTTTTCAAACAATGA, the binding signal (log2 normalized intensity) was determined as 5.49. Then CTGTGTCAGCAGAAGGCCCCAGGTGAACCA, with 0.676; and AAGGGACAGGGGCCCAAGATAAAGGGACAG, with -1.36; and CTAACCAGCTCTATCAGTCTGGGTCCAGTC, with 2.82. Then CTCATGGGCCTAAACATTCCCCTTTGTCTA, with 1.83. For AGGTCATGCATAGAAGTATGTCTGGGATTT, the binding signal (log2 normalized intensity) stood at 0.935. For the sequence TTACTCTTAGAGATAATGGGGGAGCCACTG, the binding signal (log2 normalized intensity) was -0.899. On to TGTATGACCTTTGTTTTATTGTCATGCTGA, for which the binding signal (log2 normalized intensity) amounted to 3.07. Next, AGCACTTCATCCTTATGTAACTGTAACTAT: 0.645.

Consider CTGGTCCCCTGCACAGTCAAAAATTTGTGT, for which the binding signal (log2 normalized intensity) was determined as 0.926. Regarding CTCCTTGGAAGTCGCCGTGAGGTTATTTGC, the binding signal (log2 normalized intensity) was found to be 0.914.

On to AGAACAGAATCCAGTCTGGTTAGTTTAAGC, for which the binding signal (log2 normalized intensity) is -1.29.

On to GACAGGATATTTTGAGGGCTCAAAGGTTAC, for which the binding signal (log2 normalized intensity) amounted to 5.91. Next, TCCGAAATAAACTGAGGGGTGGGGACCAGT: -0.954; TCAGAAGGAAAGTCTCCCTCCCTTTGATCC: 2.04.

With TGATCAAGAGGCTCTTCAATGCATTCCTGA, the binding signal (log2 normalized intensity) was -1.26. Take TTCTTTAAGCTATGTGGTGGAATGGAAAGA: the binding signal (log2 normalized intensity) stood at 1.1. Next, CTGATCCCAGCCCCACGGCTGAGCGGCCTT: 0.595; AGGCGCTGTGAAGCACATCCTGTTCTAGCT: -1.46; GTTATCTATTTGCATTCCATCAGTAGTATT: 1.41. In the case of TTCCTCTGGCATCTGGTCAGGGGTCAAGAA, the binding signal (log2 normalized intensity) came out at 4.62.

For the sequence TGTAAACCTAGGTAGTGGACTCTAAGGCAA, the binding signal (log2 normalized intensity) came to 2.37.

Turning to GGACTCTGGAACCATCAGGATTCCAGAGGA, the binding signal (log2 normalized intensity) turned out to be 2.36. Then CTGCATTCCAGCCTGGGGCAATAGAGTAAG, with -1.41; and TTATTGAGCACTTTTGGTATGCAAGGCATG, with 1.22. In the case of TCCCCCTGCTGGACACCGAGGTCCTGGGGC, the binding signal (log2 normalized intensity) is 2.61. Next, GGTCAAAGGGTAAAGATTATGAACTAATTT: 1.87.

As to TAGAGTCAATACTCCACAAGACCACAAGGT, the binding signal (log2 normalized intensity) is -1.19. On to TAAGTCACTGGGCTGATGACCTTTGACTGA, for which the binding signal (log2 normalized intensity) turned out to be 7.85. Then TGCCTTGTGTACTCTATCCAGTAGAGGGCA, with 2.59; and GTTTCCTGAGTTACAGATAAGCAGAAGGTC, with 1.64; and ATTGGGTACAATGTTCACTATTTGAACTTA, with 4.06. In the case of GATAAGCAGAAGGTCAGGTGAATCAACGAT, the binding signal (log2 normalized intensity) was -1.11. Next, AGGGCCCGAGGCCTTGAGCATACAAAACCC: -1.36; GTGTCAACATGGACTTTGTTGTTTGCCTCT: 4.08; GAAGTTGCCCGAGCTGCCCTTTATCTCCTC: 2.79. Then GTTGCTTCAAAGGGCAAAAGGGCAAAACTG, with 4.85; and GCTGGCGGGAGCATAGCAGCGAGGACAACC, with -1.2; and TGATGCATCCTGAGGCAAAATTCCTCGCTA, with -1.33. Next, ACTGACCCAGGGAGAAAGGTCAGGGGCAGG: 2.11; TATGGGTTAACAGAATGAACAGCTCTTCTT: -0.999; CCAGATGTTACCACCCAGACCAGTAACCTA: -1.16.
